Test results: PubChem BioAssay AID2451 (National Center for Advancing Translational Sciences (NCATS), 2010)
Values joined by “and” are separate entries in the source; they are usually repeats but may differ in a detail not shown here. Identical values can stand only once. About 2,100 (0.72%) of roughly 290,000 compounds were called active. The shares of active, inactive and inconclusive entries below differ from those in the screen. The call rests on the fitted dose curve; in most records, active means well fitted inhibition curve with a large enough effect; inconclusive means small, poorly fitted or top-dose-only effect, or effect the other way; inactive means flat fitted curve, though single readings scatter. Where the call is inconclusive, the potency comes from a doubtful curve fit.

Each compound was assayed against Fructose-bisphosphate aldolase (Giardia intestinalis (strain ATCC 50803 / WB clone C6)) (UniProt A8B2U2) (assay: qHTS Assay for Inhibitors of Fructose-1,6-bisphosphate Aldolase from Giardia Lamblia). Conditions: purified Giardia FBPA; series mostly up to 59.6 µM.
In short: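 Giardia FBPA (40 nM reagent) was preincubated 10 min at RT with compound (up to 57.5 uM final), then substrate plus GAPDH/TPI/NAD/arsenate coupling system with diaphorase/resazurin was added; resorufin fluorescence (525/598 nm) was read after 20 min.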
Further: nearly all actives have a fitted effect of over 55% in size.
Potency means the concentration at half of the fitted maximal effect; tags describe the fitted curve by direction and shape.

UniProt A8B2U2, sequence (A8B2U2 whole entry, looked up): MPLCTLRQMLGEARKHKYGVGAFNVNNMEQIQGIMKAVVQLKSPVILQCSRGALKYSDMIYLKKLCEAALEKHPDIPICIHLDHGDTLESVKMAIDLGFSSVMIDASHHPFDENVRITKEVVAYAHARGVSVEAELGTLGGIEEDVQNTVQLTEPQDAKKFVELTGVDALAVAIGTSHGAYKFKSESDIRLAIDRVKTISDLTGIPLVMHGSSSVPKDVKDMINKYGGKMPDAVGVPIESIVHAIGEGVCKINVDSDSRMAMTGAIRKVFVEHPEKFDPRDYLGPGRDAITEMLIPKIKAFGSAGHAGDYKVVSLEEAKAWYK

Question: With `Cc1cc(SCNC(=O)c2ccccc2)ncn1` as the compound, how does the Potency read?
Answer: active: 14.1 µM

Question: With `COc1cc(/C=C2\CC/C(=C\c3cc(OC)c(O)c(OC)c3)C2=O)cc(OC)c1O` as the compound, how does the Potency read?
Answer: active: 1.58 µM

Question: `COc1ccc(C(=O)CCN2CCN(c3ccccc3OC)CC2)cc1` was tested. Which Potency did it give?
Answer: inconclusive: 19.9 µM [inhibitor, single point]

Question: Which Potency does the source give for `COc1ccc(S(=O)(=O)N2CCCCC2)cc1NS(=O)(=O)c1cc(Cl)ccc1Cl` here?
Answer: inactive

Question: Which Potency does the source give for `COC(=O)CCCC1=CC2=C(c3ccccc3)C(=O)C(C)(OC(=O)C3CCCC3)C(=O)C2=CN1C(CO)CO` (configuration not stated) here?
Answer: inconclusive: 5.61 µM [inhibitor, partial curve]

Question: Which Potency does the source give for `COC(=O)CCC(=O)OC1(C)C(=O)C2=CN(CCCCO)C(c3ccc(OC)cc3)=CC2=C(Br)C1=O` (configuration not stated) here?
Answer: active: 5.01 µM

Question: For `O=C(CNCC1CCCO1)NCc1ccco1` (configuration not stated), which Potency is on record?
Answer: active: 15.8 µM

Question: `NC1=NC2(CCCCC2)n2c(nc3ccccc32)N1` was tested. Which Potency did it give?
Answer: inconclusive: 11.2 µM [activator, partial curve]

Question: With `N#CC1=C2SCC(O)(c3ccccc3)N2C(=O)CC1c1ccccc1F` (configuration not stated) as the compound, how does the Potency read?
Answer: inconclusive: 5.61 µM [inhibitor, partial curve]

Question: With `CCOc1ccc(Cc2c(C)[nH]c3ccc(C(=O)O)cc3c2=S)cc1` as the compound, how does the Potency read?
Answer: inconclusive: 12.6 µM [inhibitor, partial curve]

Question: With `CC(C)Cn1c2c(c(O)c(C(=O)Nc3ncccc3O)c1=O)CCCC2` as the compound, how does the Potency read?
Answer: active: 7.92 µM

Question: For `CC1CCCCN1CCNC(=O)CC1Oc2ccccc2NC1=O` (configuration not stated), which Potency is on record?
Answer: inconclusive: 22.3 µM [activator, single point]

Question: How did the Potency turn out when `C#CCOC(=O)Nc1ccc(=O)n(Cc2c(Cl)cccc2Cl)c1` was run?
Answer: inconclusive: 22.3 µM [inhibitor, partial curve]

Question: How did the Potency turn out when `O=C(N/N=C/c1ccc(F)cc1)c1ccccc1` was run?
Answer: inactive

Question: For `Nn1cnnc1N/N=C/c1ccc(F)cc1`, which Potency is on record?
Answer: active: 20 µM

Question: With `O=C(CSc1ccccc1)Nc1nnc(C2CC2)s1` as the compound, how does the Potency read?
Answer: active: 14.1 µM

Question: With `Cc1c(C(=O)NCCCN2CCCC2=O)oc2ccccc12` as the compound, how does the Potency read?
Answer: inactive

Question: For `COC(=O)Cc1ccc(NC(=S)N2CCCC(CO)C2)cc1` (configuration not stated), which Potency is on record?
Answer: inactive

Question: Which Potency does the source give for `Cc1ccccc1-n1nc(C(=O)c2cccs2)cc(-c2nc3ccccc3[nH]2)c1=N` here?
Answer: inconclusive: 3.97 µM [activator, full curve]

Question: With `COCCOC(=O)C1=C(C)NC2(O)c3ccccc3C(=O)C12O` (configuration not stated) as the compound, how does the Potency read?
Answer: inconclusive: 17.7 µM [inhibitor, single point]

Question: How did the Potency turn out when `Cc1ccc2oc(-c3cccc(NC(=O)Cc4cccs4)c3)nc2c1` was run?
Answer: inactive

Question: Which Potency does the source give for `COc1ccc(S(=O)(=O)Nc2cc3c4c(oc3c3ccccc23)CC(C)(C)CC4=O)cc1` here?
Answer: inconclusive: 14.1 µM [inhibitor, partial curve]

Question: `COC(=O)c1cc2c([nH]c3ccccc32)c(C)n1` was tested. Which Potency did it give?
Answer: inactive

Question: How did the Potency turn out when `Cc1noc(/C=C/N(C)C)c1S(=O)(=O)N1CCCC(C(=O)NC2CCCCC2C)C1` (configuration not stated) was run?
Answer: inactive

Question: For `O=C(Nc1cccc2nsnc12)c1ccc(-c2ccc(Br)cc2)o1`, which Potency is on record?
Answer: inconclusive: 44.6 µM [inhibitor, single point]

Question: For `CCCCC(=O)NNC(=S)NC(=O)c1ccc([N+](=O)[O-])cc1`, which Potency is on record?
Answer: inconclusive: 9.98 µM [inhibitor, partial curve]

Question: For `CCc1nnc(NC(=O)CN2CCN(S(C)(=O)=O)CC2)s1`, which Potency is on record?
Answer: inconclusive: 8.91 µM [inhibitor, partial curve]

Question: With `N#Cc1c(N)n(-c2cccc(C(=O)O)c2)c2nc3ccccc3nc12` as the compound, how does the Potency read?
Answer: inactive

Question: How did the Potency turn out when `Cc1cc2c(C(C)C)c(O)c(O)c(C=O)c2c(O)c1-c1c(C)cc2c(C(C)C)c(O)c(O)c(C=O)c2c1O` was run?
Answer: inconclusive: 15.8 µM [inhibitor, partial curve] and inconclusive: 22.3 µM [inhibitor, partial curve] and inconclusive: 19.9 µM [inhibitor, partial curve]

Question: `CC1(OC(=O)C2CCCC2)C(=O)C=C2C=C3CCCCN3C=C2C1=O` (configuration not stated) was tested. Which Potency did it give?
Answer: inconclusive: 1.58 µM [inhibitor, full curve]

Question: Which Potency does the source give for `C=C1c2cccc(O)c2C(O)=C2C(=O)[C@@]3(O)C(O)=C(C(N)=O)C(=O)[C@@H](N(C)C)[C@@H]3[C@@H](O)[C@H]12` here?
Answer: inconclusive: 9.98 µM [inhibitor, partial curve]

Question: How did the Potency turn out when `COc1cc(=O)[nH]c(SC(C)C(=O)Nc2cc(C)on2)n1` (configuration not stated) was run?
Answer: inconclusive: 14.1 µM [inhibitor, partial curve]

Question: How did the Potency turn out when `CC(C)CCn1cnc2c(NCc3ccccc3)ncnc21` was run?
Answer: inactive

Question: `CC(NC(=O)C1CCN(C(=O)[C@@H]2Cc3ccccc3CN2)CC1)c1ccccc1` (some centres not stated) was tested. Which Potency did it give?
Answer: inconclusive: 39.8 µM [inhibitor, single point]

Question: For `Cc1ccc(S(=O)(=O)N2CCOCC2)cc1NC(=O)CNCc1cccnc1`, which Potency is on record?
Answer: active: 15.8 µM

Question: Which Potency does the source give for `N#Cc1c(Cl)nsc1NC(=O)c1ccccc1` here?
Answer: inactive

Question: How did the Potency turn out when `N#CC1=C2SCN(c3ccccc3)CN2C(=O)CC1c1c(Cl)cccc1Cl` (configuration not stated) was run?
Answer: inconclusive: 5.61 µM [inhibitor, partial curve]

Question: For `COc1ccc(N2CSC3=C(C#N)C(c4cc(OC)c(OC)cc4OC)CC(=O)N3C2)c(OC)c1` (configuration not stated), which Potency is on record?
Answer: active: 1.99 µM

Question: Which Potency does the source give for `CCc1ccc2c(CN(C)Cc3ccccc3OC)cc(=O)oc2c1` here?
Answer: inconclusive: 22.4 µM [inhibitor, partial curve]

Question: How did the Potency turn out when `C=CCNC(=S)NC(=O)c1csc([N+](=O)[O-])c1` was run?
Answer: inconclusive: 22.3 µM [inhibitor, partial curve]

Question: `c1ccc2c(c1)CCCC2NC1=NCCC1` (configuration not stated) was tested. Which Potency did it give?
Answer: inconclusive: 19.9 µM [inhibitor, single point]

Question: Which Potency does the source give for `CNCc1ccccc1Sc1cc(O)ccc1O` here?
Answer: inconclusive: 14.1 µM [inhibitor, partial curve]

Question: For `S=C(NCc1ccc2c(c1)OCO2)NCc1ccco1`, which Potency is on record?
Answer: inconclusive: 25.1 µM [inhibitor, single point]

Question: `O=C(O)c1ccc(S(=O)(=O)c2ccc(Sc3ccc(C(=O)O)c(C(=O)O)c3)cc2)cc1` was tested. Which Potency did it give?
Answer: inconclusive: 19.9 µM [activator, single point]

Question: `C=CC1=C2C=C(C3CC3)N(CCCOC(C)C)C=C2C(=O)C(C)(OC(=O)c2ccco2)C1=O` (configuration not stated) was tested. Which Potency did it give?
Answer: inconclusive: 1.12 µM [inhibitor, single point]

Question: With `CCOc1cc(/C=N/NC(=O)COc2ccc(Cl)cc2)ccc1OS(=O)(=O)c1ccccc1` as the compound, how does the Potency read?
Answer: inactive

Question: `O=c1ccc2[nH]cc(C3=CCNCC3)c2[nH]1` was tested. Which Potency did it give?
Answer: inconclusive: 25.1 µM [inhibitor, partial curve]

Question: With `Cc1ccccc1C(=O)Nc1nnc(-c2ccncc2)o1` as the compound, how does the Potency read?
Answer: inactive

Question: Which Potency does the source give for `C=CCOc1ccc(/C=C2\SC(=S)N(NS(=O)(=O)c3ccccc3)C2=O)cc1` here?
Answer: inconclusive: 22.4 µM [inhibitor, partial curve]

Question: `Cc1cccc(C(=O)Nc2nnc(C3=COCCO3)o2)c1` was tested. Which Potency did it give?
Answer: active: 17.7 µM

Question: How did the Potency turn out when `CCOC(=O)c1[nH]c(C)c(C(=O)N(C)C)c1C` was run?
Answer: inconclusive: 31.5 µM [activator, single point]

Question: For `O=C(CSc1nc2ccc(Cl)cc2[nH]1)c1ccc2c(c1)OCO2`, which Potency is on record?
Answer: inconclusive: 15.8 µM [inhibitor, single point]

Question: Which Potency does the source give for `Nn1cnnc1N/N=C/c1cc(Br)cc(Br)c1O` here?
Answer: inconclusive: 44.6 µM [inhibitor, single point]

Question: How did the Potency turn out when `O=C(NC(=S)Nc1ccc(N2CCOCC2)cc1)c1cncc(Br)c1` was run?
Answer: inconclusive: 3.97 µM [inhibitor, full curve]

Question: Which Potency does the source give for `O=C(NCCO)c1cc2ccccc2cc1O` here?
Answer: active: 1.99 µM

Question: For `C1=C(c2ccccc2)CCN(c2ncnc3nc[nH]c23)C1`, which Potency is on record?
Answer: inactive

Question: For `COc1ccc(N(CC(=O)Nc2ccc3c(c2)OCCO3)S(=O)(=O)c2cccnc2)cc1`, which Potency is on record?
Answer: inactive

Question: How did the Potency turn out when `CCOC(=O)C1CCN(C(=O)COc2cccc(C)c2)CC1` was run?
Answer: inactive

Question: Which Potency does the source give for `CC(C)C[C@H]1C(=O)N2CCC[C@H]2[C@]2(O)O[C@](NC(=O)[C@@H]3C=C4c5cccc6[nH]c(Br)c(c56)CC4N(C)C3)(C(C)C)C(=O)N12` (some centres not stated) here?
Answer: inconclusive: 17.7 µM [inhibitor, partial curve]

Question: How did the Potency turn out when `O=C1C=C(NCCN2CCOCC2)C(=O)c2cnccc21` was run?
Answer: inconclusive: 0.126 µM [inhibitor, full curve]

Question: How did the Potency turn out when `CC12C=CC(=O)C=C1CCC1C2=CCC2(C)C1CC[C@@H]2C(=O)CN1CCN(c2cc(N3CCCC3)nc(N3CCCC3)n2)CC1` (some centres not stated) was run?
Answer: inconclusive: 0.397 µM [inhibitor, full curve]

Question: Which Potency does the source give for `CN(c1ccccc1)S(=O)(=O)c1cccc(NC(=O)C2CC(=O)N(Cc3ccccc3)C2)c1` (configuration not stated) here?
Answer: inactive

Question: With `NC(=O)SCC(=O)Nc1ccccc1C(=O)O` as the compound, how does the Potency read?
Answer: inconclusive: 15.8 µM [inhibitor, partial curve]

Question: For `CCOC(=O)c1c(N)c2cc([N+](=O)[O-])ccc2n1C`, which Potency is on record?
Answer: inactive

Question: `Cc1nc(-c2ccc(Cl)cc2)sc1C(=O)NNC(=O)C(C)C` was tested. Which Potency did it give?
Answer: inactive

Question: With `CCc1nc(C)ccc1OCC(=O)N(CC)CC` as the compound, how does the Potency read?
Answer: inconclusive: 15.8 µM [inhibitor, partial curve]

Question: How did the Potency turn out when `Cc1ccc(/C=C2\SC(=S)N(C3CCS(=O)(=O)C3)C2=O)o1` (configuration not stated) was run?
Answer: inconclusive: 15.8 µM [inhibitor, partial curve]

Question: For `N#C/C(=N\Nc1ccc(Br)cc1)C(=N)N1CCOCC1`, which Potency is on record?
Answer: inconclusive: 15.8 µM [inhibitor, partial curve]

Question: For `CC(=O)C(Sc1nccc(-c2cccs2)n1)C(C)=O`, which Potency is on record?
Answer: active: 17.7 µM

Question: With `CC1=CC(C)(C)Nc2ccc(Cc3ccc4c(c3)C(C)=CC(C)(C)N4)cc21` as the compound, how does the Potency read?
Answer: inconclusive: 28.2 µM [inhibitor, partial curve]

Question: How did the Potency turn out when `OCCC1CN(Cc2c(O)ccc3ccccc23)CCN1CCc1ccccc1` (configuration not stated) was run?
Answer: active: 19.9 µM

Question: Which Potency does the source give for `COc1ccc2nc(SCC(=O)C(C)(C)C)[nH]c2c1` here?
Answer: inactive
